Measurements as given in PubChem BioAssay AID504332 (National Center for Advancing Translational Sciences (NCATS), 2011).
“And” between values parts separate entries of the source, which are not always exact repeats. Identical values can stand only once. The campaign covered roughly 350,000 compounds. About 31,000 (8.9%) were called active. The shares of active, inactive and inconclusive entries below differ from those in the screen. Calls follow the shape of the dose curve; as a rule, active = well fitted inhibition curve with a large enough effect; inconclusive = small, poorly fitted or top-dose-only effect; inactive = no such curve, though single readings can be large or run the other way. A potency beside an inconclusive call is a rough fit, not a confirmed value. Some structures have more than one record in an assay (separate samples or runs), and their calls can disagree.

Target: Histone-lysine N-methyltransferase EHMT2 (Homo sapiens) (UniProt Q96KQ7)
Experiment: qHTS Assay for Inhibitors of Histone Lysine Methyltransferase G9a; also: nearly all actives have a fitted effect of over 75% in size
Details: G9a H3K9 monomethylation, AlphaScreen, 2 h; activity, negative = inhibition: at 59 µM (top of the series) unless noted
In short: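 Step 1: enzyme (final 20 nM) with compound, 15 min RT. Step 2: substrate peptide 500 nM and SAM 20 uM, 2 h RT. Step 3: anti-H3K9me1 antibody and AlphaScreen beads, 10 min, then plate read.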
% is scaled to controls: 0 for no effect and ±100 for the full control effect; potency is read from the fitted curve at half-maximal effect; tags tell the direction and shape of the fitted curve.

UniProt Q96KQ7, sequence (Q96KQ7 whole entry, looked up): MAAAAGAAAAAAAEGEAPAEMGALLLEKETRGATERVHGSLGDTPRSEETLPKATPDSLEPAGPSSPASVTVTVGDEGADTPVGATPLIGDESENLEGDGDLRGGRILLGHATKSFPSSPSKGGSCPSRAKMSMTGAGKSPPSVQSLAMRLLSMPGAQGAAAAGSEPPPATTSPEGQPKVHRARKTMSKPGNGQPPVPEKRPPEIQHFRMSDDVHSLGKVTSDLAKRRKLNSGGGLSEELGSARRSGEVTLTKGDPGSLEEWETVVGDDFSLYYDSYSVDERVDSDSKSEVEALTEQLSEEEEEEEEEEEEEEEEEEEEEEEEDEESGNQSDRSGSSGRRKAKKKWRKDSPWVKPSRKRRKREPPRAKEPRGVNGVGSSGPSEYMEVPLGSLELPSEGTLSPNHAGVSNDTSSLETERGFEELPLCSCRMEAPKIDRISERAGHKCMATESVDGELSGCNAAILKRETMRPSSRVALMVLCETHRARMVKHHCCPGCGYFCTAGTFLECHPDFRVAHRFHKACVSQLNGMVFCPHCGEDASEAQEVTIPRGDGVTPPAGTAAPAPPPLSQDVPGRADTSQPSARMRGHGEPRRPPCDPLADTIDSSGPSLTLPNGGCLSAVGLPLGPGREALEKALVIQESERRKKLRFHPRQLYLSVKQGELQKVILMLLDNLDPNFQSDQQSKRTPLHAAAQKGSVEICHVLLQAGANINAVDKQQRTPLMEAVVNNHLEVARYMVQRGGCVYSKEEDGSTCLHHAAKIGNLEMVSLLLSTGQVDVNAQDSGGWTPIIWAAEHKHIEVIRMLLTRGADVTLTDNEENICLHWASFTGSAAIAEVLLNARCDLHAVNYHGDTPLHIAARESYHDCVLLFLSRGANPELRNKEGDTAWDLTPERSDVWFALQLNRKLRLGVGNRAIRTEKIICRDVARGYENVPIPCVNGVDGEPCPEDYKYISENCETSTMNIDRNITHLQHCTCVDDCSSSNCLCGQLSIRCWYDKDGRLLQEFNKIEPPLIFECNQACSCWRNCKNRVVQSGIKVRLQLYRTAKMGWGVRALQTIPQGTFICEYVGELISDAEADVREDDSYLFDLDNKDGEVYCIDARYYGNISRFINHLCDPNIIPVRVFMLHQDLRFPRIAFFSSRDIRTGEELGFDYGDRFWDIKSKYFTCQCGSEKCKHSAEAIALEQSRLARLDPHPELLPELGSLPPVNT

| SMILES | Potency | activity, negative = inhibition |
| --- | --- | --- |
| Cc1ccsc1C(=O)N/N=C/C=C/c1ccccc1[N+](=O)[O-] | inconclusive: 1 µM [inhibitor, full curve, poor fit] |  |
| CCOc1ccc(/C(O)=C2/C(=O)C(=O)N(CC3CCCO3)C2c2ccco2)cc1 (stereo unspecified) | inconclusive: 22.4 µM [inhibitor, single point] |  |
| Fc1cc(F)c(C2SCCN2C(=S)Nc2cccc(C(F)(F)F)c2)c(F)c1 (stereo unspecified) | inconclusive: 50.1 µM [inhibitor, partial curve] |  |
| CCc1ccc(-n2c(=O)c3c4c(sc3n(CC(=O)NCCCOC)c2=O)CCCC4)cc1 | inactive |  |
| CC1CCN(c2ncnc3c2cnn3-c2ccc(F)cc2)CC1 | inactive |  |
| Cc1cccc(COCC(Cc2ccccc2)N2CCN(C(=O)c3ccc(C(F)(F)F)cc3)CCC2=O)c1 (stereo unspecified) | inconclusive: 8.91 µM [inhibitor, partial curve, poor fit] |  |
| Cc1ccccc1Cn1c(SCc2ccc(C(=O)NC(C)c3ccccc3)cc2)nc2ccncc21 (stereo unspecified) | inconclusive: 3.55 µM [inhibitor, partial curve, poor fit] |  |
| CCN1CCN(C(=S)c2ccc(O)cc2)CC1 | active: 6.31 µM |  |
| CCOC(=O)c1ccccc1NC(=O)Cn1ncc2c([nH]c3ccccc32)c1=O | inactive |  |
| CC(=O)N(Cc1cc(=O)[nH]c2ccccc12)c1ccc(C)cc1C | active: 31.6 µM |  |
| COc1cccc(-c2cncnc2N(C)Cc2ccco2)c1 |  | inactive: -44.2% [at 0.501 µM] |
| COc1cc(/C=N/NC(=O)[C@H](Cc2c[nH]c3ccccc23)NC(=O)OCC(C)C)cc([N+](=O)[O-])c1O | inconclusive: 17.8 µM [inhibitor, single point] |  |
| O=C(NCC(c1ccco1)N1CCN(c2ccccc2)CC1)OCc1ccccc1 (stereo unspecified) | inconclusive: 50.1 µM [inhibitor, partial curve, poor fit] |  |
| Oc1ccc2ccccc2c1C=Nc1ccc(N2CCOCC2)cc1 | inconclusive: 1.41 µM [inhibitor, partial curve, poor fit] |  |
| O=C(CSc1ncccn1)NC(=O)Nc1ccc2c(c1)OCCO2 | active: 44.7 µM |  |
| O=C(COC(=O)c1ccc(O)cc1O)Nc1ccc2ccccc2c1 |  | inactive: 17% [at 12.7 µM] |
| CN(C(=S)NC(=O)c1ccc(Cl)cc1)C1CCCCC1 | active: 8.91 µM |  |
| Cc1cc(C)cc(N(CC(=O)N2CC=C(c3ccccc3)CC2)S(=O)(=O)c2c(C)noc2C)c1 | inconclusive: 89.1 µM [inhibitor, single point] |  |
| CC(=O)c1cccc(NC(=O)NNC(=O)c2ccc(Cl)cc2Cl)c1 | inconclusive: 31.6 µM [inhibitor, single point] |  |
| COC(=O)c1c(C(=O)OC)c(-c2ccc(C)cc2)n2c1CCC2 | inconclusive: 25.1 µM [inhibitor, single point] |  |
| COc1ccc(N2CCN(C(CNC(=O)OCc3ccccc3)c3ccco3)CC2)cc1 (stereo unspecified) | active: 25.1 µM |  |
| Cc1ccc(CCc2nnc(SCC(=O)Nc3cc(Cl)ccc3Cl)n2-c2ccccc2)o1 | inconclusive: 25.1 µM [inhibitor, single point] |  |
| COc1cc2nc(Cl)nc(N3CCN(C)CC3)c2cc1OC | inconclusive: 28.2 µM [inhibitor, partial curve] |  |
| COC(=O)C1=C(c2ccccc2)c2ccccc2S(=O)(=O)N1CC(=O)Nc1cccc(C(C)=O)c1 | inconclusive: 31.6 µM [inhibitor, partial curve, poor fit] |  |

| SMILES | Potency | activity, negative = inhibition |
| --- | --- | --- |
| CCOc1ccc2nc(SC3CC(=O)N(c4ccccc4)C3=O)sc2c1 (stereo unspecified) | inconclusive: 28.2 µM [inhibitor, single point] |  |
| COc1ccc(Nc2nnc(SCC(=O)Nc3cc(C)on3)s2)cc1 | inconclusive: 7.08 µM [inhibitor, single point] |  |
| CC1=Nc2cccc3cccc(c23)N1C | inconclusive: 3.98 µM [inhibitor, partial curve, poor fit] |  |
| CCOC(=O)CC1Sc2ccccc2NC1=O (stereo unspecified) | active: 10 µM |  |
| CC1CC(c2ccccc2)n2nc(NC(=O)CCc3ccccc3)nc2N1 (stereo unspecified) | inactive |  |
| COc1ccc(C2=NOC(C(=O)Nc3ccc4c(c3)OCO4)C2)cc1 (stereo unspecified) | inconclusive: 89.1 µM [inhibitor, single point] |  |
| COc1cc(NC(=O)NNC(=O)c2cc3occc3n2C)cc(OC)c1OC | inconclusive: 17.8 µM [inhibitor, full curve] |  |
| CC1=C(C(=O)Nc2ccccc2)C(c2ccc(C(=O)O)cc2)n2ncnc2N1 (stereo unspecified) | inactive |  |
| COc1ccc(NC2=C(C(C)=O)C(c3ccc(N(C)C)cc3)C(C(C)=O)C(C)(O)C2)cc1 (stereo unspecified) | active: 20 µM |  |
| CC(C)OCCCn1c(NN)nc2ccccc2c1=O | inconclusive: 12.6 µM [inhibitor, partial curve, poor fit] |  |
| CCOc1ccc(Nc2nc3c(S(=O)(=O)c4cccc(Cl)c4)nnn3c3ccsc23)cc1 | inactive |  |
| CCOc1ccc(NC(=O)c2cnn(-c3ccc(C)c(C)c3)c2C2CCN(C(=O)OC(C)(C)C)CC2)cc1 | inactive |  |
| COCc1nc2ccccc2n1CCc1ccccc1 | inactive |  |
| Cc1cc(C)c2oc(C(=O)Nc3ccc(S(=O)(=O)N4CCCC(C)C4)cc3)cc(=O)c2c1 (stereo unspecified) | inactive |  |
| Cc1ccc(Oc2nc(CN3CCOCC3)nc3sc4c(c23)CCC(C)C4)cc1C (stereo unspecified) | inactive |  |
| O=C(COC(=O)c1ccc(S(=O)(=O)N2CCCC2)cc1)Nc1ccc(N2CCOCC2)cc1 | inactive |  |
| Cc1cc(C)cc(OCC(=O)NNC(=O)c2cc(C)[nH]n2)c1 | inconclusive: 39.8 µM [inhibitor, single point] |  |
| COc1cc(C(=O)c2ccccc2Cl)c([N+](=O)[O-])cc1OC | inconclusive: 44.7 µM [inhibitor, partial curve] |  |
| O=C(O)c1cccc(NC2=Nc3cccc4cccc2c34)c1 | inconclusive: 79.4 µM [inhibitor, single point] |  |
| Cc1ccc(-c2csc(NC(=O)c3cccc(S(=O)(=O)N4CCN(C)CC4)c3)n2)cc1 | inconclusive: 89.1 µM [inhibitor, single point] |  |
| COc1ccccc1CN1CCCC2(CCN(S(C)(=O)=O)CC2)C1 |  | inactive: -3.19% [at 12.7 µM] |
| CCOC(=O)C1CCCN(CC(O)COc2ccccc2C(C)=O)C1 (stereo unspecified) | inconclusive: 89.1 µM [inhibitor, single point] |  |
| COc1ccc(NC(=S)NC(=O)Cc2ccccc2)cc1 |  | inactive: 6.84% [at 0.501 µM] |
| Cc1cc(C(F)F)n2nc(C(=O)Nc3cccc(Cl)c3C)nc2n1 | inactive |  |

| SMILES | Potency | activity, negative = inhibition |
| --- | --- | --- |
| CCOc1ccc(N=C(/C(C(=O)C(=O)N2CCOCC2)=C(\O)c2ccccc2)c2ccccc2)cc1 | active: 50.1 µM |  |
| O=C(O)c1[nH]c2ccccc2c1-c1ccccc1 | inactive |  |
| O=C(CN1CCN(c2ccc(F)cc2)CC1)N1CCC(Cc2ccccc2)CC1 | inconclusive: 2.24 µM [inhibitor, partial curve, poor fit] |  |
| Fc1ccccc1CSc1ccc(-c2ccco2)nn1 | active: 39.8 µM |  |
| COc1ccc(Cn2c(C(=O)O)c(CNCCc3ccco3)c3ccc(C)cc32)cc1 | inconclusive: 3.98 µM [inhibitor, partial curve, poor fit] |  |
| CCCn1c(=C(C#N)C#N)s/c(=C2\C=Cc3ccccc3N2CC)c1=O | inactive |  |
| COc1ccc(F)cc1S(=O)(=O)NCC(c1ccco1)S(=O)(=O)c1ccc(F)cc1 (stereo unspecified) | inactive |  |
| COc1cccc(C2NC(CCSC)(C(=O)O)C3C(=O)N(C(C)C)C(=O)C23)c1O (stereo unspecified) | inconclusive: 89.1 µM [inhibitor, single point] |  |
| Cn1nccc1C(=O)NC(=S)Nc1cc(Cl)cc(Cl)c1 | inconclusive: 89.1 µM [inhibitor, single point] |  |
| Cn1nc(C(=O)NNc2c(F)c(F)cc(F)c2F)c2ccccc2c1=O | inconclusive: 44.7 µM [inhibitor, partial curve] |  |
| O=C(CSc1cccc[n+]1[O-])NN(c1ccccc1)c1ccccc1 | inactive |  |
| COC(=O)CSc1nnc(-c2sc3cc(OC)ccc3c2Cl)n1C | active: 6.31 µM |  |
| Cc1occc1-c1nnc(SCc2nnc(-c3ccc(Cl)cc3)o2)n1C | active: 79.4 µM |  |
| O=C(CN1C(=O)CCn2nc(-c3ccccc3)cc21)NCc1ccc(F)cc1 | inactive |  |
| COc1ccc(S(=O)(=O)N(CCC(=O)O)Cc2ccccc2)cc1 | inactive |  |
| O=C(O)CSCC(=O)N1CCN(S(=O)(=O)c2ccccc2)CC1 | inconclusive: 44.7 µM [inhibitor, partial curve] |  |
| COc1ccc(Nc2nnc(SCc3cn4c(C)cccc4n3)s2)cc1 | inconclusive: 39.8 µM [inhibitor, single point] |  |
| Cc1nn(Cc2ccccc2)c(Cl)c1/C=C/C(=O)OCC(=O)N(C)C1CCS(=O)(=O)C1 (stereo unspecified) | inconclusive: 89.1 µM [inhibitor, partial curve, poor fit] |  |
| CCOc1ccc(NC(=S)NC(=O)c2ccco2)cc1 | inconclusive: 89.1 µM [inhibitor, single point] |  |
| CCOC(=O)c1[nH]c(C)c(/C(O)=C2\C(=O)C(=O)N(CCCN(C)C)C2c2cccnc2)c1C (stereo unspecified) | inconclusive: 79.4 µM [inhibitor, single point] |  |
| Cc1ccccc1N(C)S(=O)(=O)c1nnc(NC(=O)c2ccccc2F)s1 | inactive and active: 3.98 µM |  |
| N#CC1=C(N)N2C(=C(C#N)C13CCCC3)Nc1ccccc12 | inconclusive: 56.2 µM [inhibitor, partial curve, poor fit] |  |
| O=C(Nc1ccc2c(c1)OCO2)C1CC(c2c(F)cccc2Cl)=NO1 (stereo unspecified) | active: 44.7 µM |  |
